About 550 (1.1%) of roughly 48,000 compounds were called active. Roughly 4% stayed inconclusive and do not appear here. Cut-off read from the data, not from the text of the source: active = potency below about 15 µM; inconclusive = mostly about 16 µM to 33 µM; inactive = weaker than that. Some of the results follow.
Potency is the fitted concentration of half-maximal effect.

Sequence of UniProt P04062 (P04062 whole entry, looked up): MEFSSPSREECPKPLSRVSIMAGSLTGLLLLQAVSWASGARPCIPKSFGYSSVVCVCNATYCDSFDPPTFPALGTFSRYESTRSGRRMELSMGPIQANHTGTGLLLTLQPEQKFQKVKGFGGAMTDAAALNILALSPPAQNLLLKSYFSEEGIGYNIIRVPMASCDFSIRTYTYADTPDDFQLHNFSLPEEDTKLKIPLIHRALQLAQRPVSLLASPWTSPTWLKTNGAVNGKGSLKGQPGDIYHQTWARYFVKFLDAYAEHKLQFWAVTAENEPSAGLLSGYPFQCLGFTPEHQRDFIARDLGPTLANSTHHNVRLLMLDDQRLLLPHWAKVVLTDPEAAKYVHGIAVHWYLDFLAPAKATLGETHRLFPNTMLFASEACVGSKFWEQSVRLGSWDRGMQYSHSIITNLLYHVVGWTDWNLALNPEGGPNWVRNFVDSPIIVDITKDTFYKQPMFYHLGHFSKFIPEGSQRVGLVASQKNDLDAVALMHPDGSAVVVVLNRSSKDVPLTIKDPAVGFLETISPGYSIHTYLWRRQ

This experiment concerns the target Lysosomal acid glucosylceramidase (Homo sapiens) (UniProt P04062). Nature of the experiment: Glucocerebrosidase.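 Note: the screen sought inhibitors.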 The following applies: purified enzyme, resorufin glucoside fluorescence (screen aimed at inhibitors), 20 min. In a few lines:
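Normal human glucocerebrosidase (0.2 nM final) was assayed with resorufin β-D-glucopyranoside (30 uM final) in 50mM citric acid/KH2PO4, 10mM sodium taurocholate, 0.01% tween-20, pH 5.9. Compounds were titrated; fluorescence (Ex 548, Em 600) read after 20 min at RT.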
Take `CC(CC(=O)O)NCC1COc2ccccc2O1` (configuration not stated): the Potency is inactive: > 76.9 µM. In the case of `O=C(Cn1ccccc1=O)c1cccs1` it was inactive: > 76.9 µM.

Regarding `COc1ccc2c(c1)[nH]c1c(=O)n(CCc3cnc[nH]3)cnc12`, the Potency was inactive: > 76.9 µM. In the case of `O=C(CN(Cc1cccs1)C(=O)CN1C(=O)COc2ccccc21)NCc1ccco1` it was inactive: > 76.9 µM; in that of `O=C1C(Cl)=C(NCCCN2CCOCC2)C(=O)N1CCc1ccccc1`, active: 11.3 µM; in that of `Cc1nc2ccc(C(C(F)(F)F)(C(F)(F)F)C(F)(F)F)cc2[nH]1`, inactive: > 76.9 µM.

Consider `Nc1nc(SCc2nc3scc(-c4cccs4)c3c(=O)[nH]2)n[nH]1`, for which the Potency is inactive: > 76.9 µM. The value for `COC(=O)c1ccccc1S(=O)(=O)N1CCC(c2nc3ccccc3o2)CC1` was inactive: > 76.9 µM; that for `COC(=O)c1ccccc1NC(=O)c1cc(-c2ccc(OC)c(OC)c2)on1` was inactive: > 76.9 µM.

For `COCCCN1C(=O)C(=O)/C(=C(/O)c2ccc(OC)cc2)C1c1ccc(O)c(OC)c1` (configuration not stated), the Potency is inactive: > 76.9 µM. The value for `N#Cc1nc(Cc2cccc3ccccc23)oc1NCC1CCCO1` (configuration not stated) was “inactive”.

As to `COc1ccccc1NC(=O)CN(c1ccccc1F)S(C)(=O)=O`, the Potency is inactive: > 76.9 µM. The value for `Cc1cccc(N(CC(=O)NC2CCCC2)C(=O)CS(=O)CC(=O)Nc2ccc3c(c2)OCO3)c1` (configuration not stated) was inactive: > 76.9 µM. The value for `CC(C)CNC(=O)COC(=O)c1cc(S(=O)(=O)N2CCCCC2)ccc1N1CCOCC1` was inactive: > 76.9 µM; that for `COc1cc2c(cc1OC)CN(C(=O)c1cc(S(=O)(=O)N3CCOCC3)ccc1Cl)CC2` was inactive: > 76.9 µM; that for `CC1Cc2ccccc2N1S(=O)(=O)c1cccc(C(=O)NCCCO)c1` (configuration not stated) was inactive: > 76.9 µM. The value for `CCOc1ccc(C(=O)Nc2c(C(N)=O)oc3ccccc23)cc1` was “inactive”; that for `Cn1nc(-c2ccc(N3CCOCC3)c(NC(=O)c3ccccc3)c2)c2ccccc2c1=O` was inactive: > 76.9 µM; that for `COc1ccc2c(c1)CCc1c(C(=O)N3CCCCCC3)noc1-2` was inactive: > 76.9 µM. As for `CCOC(=O)c1sc(=S)n(CC)c1NC(=O)C1CC1`, the Potency was inactive: > 76.9 µM. In the case of `COC(=O)c1cccnc1-n1c(=O)c2cccnc2n(Cc2ccc(Cl)cc2)c1=O` it was inactive: > 76.9 µM; in that of `O=C(c1ccncc1)N1C2C=CC(C2)C1(C(F)(F)F)C(F)(F)F` (configuration not stated), inactive: > 76.9 µM. The value for `Cn1cnnc1SCNC(=O)C(F)(F)F` was inactive: > 76.9 µM. In the case of `c1ccc(Cn2nnnc2C(c2ccncc2)N2CCOCC2)cc1` (configuration not stated) it was inactive: > 76.9 µM. As to `COC(=O)[C@H](CCSC)NC(=O)Nc1ccc(C)c(C)c1`, the Potency is inactive: > 76.9 µM. In the case of `O=C(O)C1CCN(S(=O)(=O)N2CCOCC2)CC1` it was inactive: > 76.9 µM. The value for `NC(=O)NC(=O)CSc1cccc(C(F)(F)F)c1` was inactive: > 76.9 µM; that for `Cc1ccc(-c2cc(C(=O)NCC3CCCO3)no2)cc1` (configuration not stated) was inactive: > 76.9 µM; that for `Fc1ccccc1CSc1nnc(-c2cccs2)o1` was inactive: > 76.9 µM. The value for `Cc1ccc(-c2nnc(N3CCN(C(=O)c4ccco4)CC3)c3ccccc23)cc1` was inactive: > 76.9 µM; that for `CC(C)C(=O)NCCn1ccc2ccccc21` was inactive: > 76.9 µM. `CCN(CC)C(=O)C1=C(C)Nc2nnnn2C1c1cccnc1` (configuration not stated): the Potency is inactive: > 76.9 µM. In the case of `CC(C)Cc1nc2oc3c(=O)[nH]cnc3c2c2c1CCC2` it was inactive: > 76.9 µM; in that of `CS(=O)(=O)c1nc(-c2ccco2)cc(C(F)(F)F)n1`, inactive: > 76.9 µM.

For the compound `O=C(NC1CCCC1)C(c1ccncc1)N(Cc1cccs1)C(=O)c1csnn1` (configuration not stated), the Potency is inactive: > 76.9 µM. In the case of `Cc1ccc(S(=O)(=O)NCC(=O)OCC(=O)Nc2ncc(Cl)cc2Cl)cc1` it was inactive: > 76.9 µM; in that of `CCCN1C(=O)C(O)(C/C(C)=N/O)c2ccccc21` (configuration not stated), inactive: > 76.9 µM. In the case of `COc1ccccc1-c1c(C#N)c(SCC(=O)N2CCCC2)nc(C)c1C(N)=O` it was inactive: > 76.9 µM; in that of `COc1ccc2nc(Nc3nc(C)c(C(C)=O)s3)sc2c1`, inactive: > 76.9 µM. The value for `Cn1c(SCC(=O)N2CCc3ccccc32)nnc1C1CC1` was inactive: > 76.9 µM; that for `COc1cccc(CNC(=O)C2CCN(Cc3cnn(-c4ccccc4)c3-n3cccc3)CC2)c1` was inactive: > 76.9 µM.

For the compound `Cc1cc(NC(=O)CSc2nc3c(c(=O)n2-c2ccc(Cl)cc2)SCC3)no1`, the Potency was active: 13.7 µM.

On to `NS(=O)(=O)c1ccc(CNC(=O)C2CCCCC2)cc1`, for which the Potency was inactive: > 76.9 µM. In the case of `O=C(OCCn1cncn1)c1cc2ccccc2oc1=O` it was inactive: > 76.9 µM; in that of `CC(=O)Nc1nonc1NC(=O)CSc1nc2ccccc2o1`, inactive: > 76.9 µM; in that of `CC(=O)Nc1nonc1NC(=O)CSc1ncn[nH]1`, inactive: > 76.9 µM.

Turning to `Cc1nnc(SCCn2c(Br)nc3c2c(=O)n(C)c(=O)n3C)s1`, the Potency was inactive: > 76.9 µM.

Consider `CCOC(=O)c1ccccc1NC(=O)COC(=O)c1ccc(C)c(S(=O)(=O)N2CCOCC2)c1`, for which the Potency is inactive: > 76.9 µM. In the case of `COc1cccc(S(=O)(=O)Nc2ccc(C(=O)N3CCN(C(=O)c4ccco4)CC3)cc2)c1` it was inactive: > 15.4 µM; in that of `COc1ccc(S(=O)(=O)N2CCCC(C(=O)O)C2)cc1Cl` (configuration not stated), inactive: > 76.9 µM; in that of `CCOC(=O)C1C(=O)C(C(=O)OCC)C(c2cccnc2)NC1c1cccnc1` (configuration not stated), inactive: > 76.9 µM.

Regarding `COc1ccc(CN(Cc2cc3cccc(C)c3[nH]c2=O)C(=O)N(C)C)cc1`, the Potency was inactive: > 76.9 µM. The value for `COc1cccc(CNC(=O)C2CCN(S(=O)(=O)N3CCCC3)CC2)c1` was inactive: > 76.9 µM; that for `CC1CN(c2nn3c(=O)c4ccccc4nc3c3ccccc23)CC(C)O1` (configuration not stated) was inactive: > 76.9 µM; that for `O=C(NC1CCCCCCC1)C1CCN(c2nc3ccccc3o2)CC1` was inactive: > 76.9 µM. The value for `COc1ccc(Cn2nnnc2C(c2cc3ccc(OC)cc3[nH]c2=O)N2CCCCCC2)cc1` (configuration not stated) was inactive: > 76.9 µM; that for `CC(=O)Nc1c(C(=O)c2ccccc2)oc2ccccc12` was inactive: > 76.9 µM.

The values are drawn from PubChem BioAssay AID360 (National Center for Advancing Translational Sciences (NCATS), 2006).
